This note sets out measurements from PubChem BioAssay (NCI).

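Growth conditions: 96-well plates. Treatment: test compound, 48 hours, 5 concentrations. Analysis: linear interpolation between bracketing concentrations; unreached endpoints set to highest concentration. GI50 is the concentration that inhibits growth by half.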 Not every entry of the source has a single result; some have several. The other results are left out here. There may be further records. Records of one sample usually come from different ranges of test concentrations, not given here; a value can be the end of its range.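 TGI denotes the concentration required for complete inhibition of growth.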 Where only a bound is given, the exact number is not on record here.

Among the test systems are CCRF-CEM leukemia; SN12C renal; M14 melanoma; SF-268 CNS; SF-539 CNS; NCI-H460 lung; HCT-116 colon; COLO 205 colon; SK-MEL-28 melanoma; NCI-H226 lung; MALME-3M melanoma; OVCAR-3 ovarian; HCC-2998 colon; IGROV1 ovarian; 786-0 renal; RXF 393 renal; RPMI-8226 leukemia; OVCAR-8 ovarian; TK-10 renal; HOP-62 NSCLC; UACC-62 melanoma; OVCAR-4 ovarian; SNB-75 CNS; SR leukemia; U251 CNS; HL-60(TB) leukemia; SF-295 CNS; SK-MEL-5 melanoma; MOLT-4 leukemia.

Common to all, as to assay: growth of human tumour cells (NCI), 48 h

Consider `COc1cccc2c1C(=O)c1c(O)c3c(c(O)c1C2=O)C[C@@](O)(C(=O)CO)CC3OC1CC(N)C(OC2CCCCO2)C(C)O1` (stereo partly specified), for which the TGI in the assay with CCRF-CEM leukemia was 65.2 nM and 2.59 µM; with SN12C renal, 146 nM and 15.2 µM; with M14 melanoma it was 225 nM and 4.96 µM; in the assay on SF-268 CNS, 222 nM and 4.51 µM; in the assay with SF-539 CNS, 32 nM and 1.76 µM; in the assay on COLO 205 colon, 211 nM and 6.15 µM. In addition, the TGI in the assay on SK-MEL-28 melanoma is 312 nM and 6.6 µM; in the assay with NCI-H226 lung, 78.8 nM and 2.37 µM; in the assay with MALME-3M melanoma, 151 nM and 2 µM; in the assay on OVCAR-3 ovarian, 464 nM and 13.8 µM; in the assay with HCC-2998 colon it was 466 nM and 24.7 µM; in the assay on IGROV1 ovarian, 375 nM and 14.3 µM. For the same compound, the TGI is 138 nM and 13.4 µM in the assay with 786-0 renal; 276 nM and 5.87 µM with RXF 393 renal; 63.5 nM and 10.6 µM in the assay on RPMI-8226 leukemia; 641 nM and 8.58 µM in the assay on OVCAR-8 ovarian; 816 nM and 12.1 µM with TK-10 renal; 41.1 nM and 3.18 µM in the assay with HOP-62 NSCLC. Besides, the TGI in the assay on UACC-62 melanoma is 134 nM and 8.34 µM; in the assay with OVCAR-4 ovarian, 279 nM and 10.7 µM; with SNB-75 CNS it was 93 nM and 2.35 µM; with SR leukemia it was 1.98 nM and 2.32 µM; in the assay on U251 CNS, 1.04 µM and 50 µM; with HL-60(TB) leukemia, 9.51 nM and 3.75 µM. For the same compound, the GI50 is < 1 nM and 36.1 nM in the assay with NCI-H460 lung; 17 nM and 246 nM in the assay on HCT-116 colon; 15.2 nM and 687 nM in the assay with NCI-H226 lung.
`CC[C@H](C)[C@@H]([C@@H](CC(=O)N1CCC[C@H]1[C@H](OC)[C@@H](C)C(=O)NCCc1ccccc1)OC)N(C)C(=O)C(NC(=O)[C@H](C(C)C)N(C)C)C(C)C` (stereo partly specified): the TGI in the assay with CCRF-CEM leukemia was 2.1 nM and > 10 µM; with SF-539 CNS, 1.96 nM and > 10 µM; with NCI-H460 lung it was 2.23 nM and > 10 µM; with SF-295 CNS, 1.52 nM and 1.2 µM; with RPMI-8226 leukemia, 3.04 nM and 8.51 µM; in the assay with SR leukemia it was 1.12 nM and > 10 µM. Further, the TGI in the assay with SK-MEL-5 melanoma is 0.384 nM and 3.3 µM; in the assay on HL-60(TB) leukemia, 0.448 nM and > 10 µM; in the assay on MOLT-4 leukemia it was 5.33 nM and > 10 µM.
